Assay results taken from PubChem BioAssay AID1468 (National Center for Advancing Translational Sciences (NCATS), 2008).
Where “and” joins values, the source holds several entries; their conditions need not be identical. Identical values can stand only once. Out of some 280,000 compounds screened, about 1,100 (0.39%) were called active. The inconclusive results got no clear call from the source; some entries with a clear call stand among them for comparison. Calls follow the shape of the dose curve; as a rule, active = well fitted inhibition curve with a large enough effect; inconclusive = small, poorly fitted or top-dose-only effect, or effect the other way; inactive = flat fitted curve, though single readings scatter. Potencies of inconclusive entries are doubtful fits and often do not repeat.

What follows are molecules tested against Microtubule-associated protein tau (Homo sapiens) (UniProt P10636) (assay: qHTS for Inhibitors of Tau Fibril Formation, Fluorescence Polarization). Conditions: K18 P301L tau heparin fibrillization, Alexa594 FP, 6 h; series mostly up to 57.7 µM; activity, negative = inhibition: at the top concentration.
UniProt P10636, sequence (P10636 whole entry, looked up, the tested form may be a part): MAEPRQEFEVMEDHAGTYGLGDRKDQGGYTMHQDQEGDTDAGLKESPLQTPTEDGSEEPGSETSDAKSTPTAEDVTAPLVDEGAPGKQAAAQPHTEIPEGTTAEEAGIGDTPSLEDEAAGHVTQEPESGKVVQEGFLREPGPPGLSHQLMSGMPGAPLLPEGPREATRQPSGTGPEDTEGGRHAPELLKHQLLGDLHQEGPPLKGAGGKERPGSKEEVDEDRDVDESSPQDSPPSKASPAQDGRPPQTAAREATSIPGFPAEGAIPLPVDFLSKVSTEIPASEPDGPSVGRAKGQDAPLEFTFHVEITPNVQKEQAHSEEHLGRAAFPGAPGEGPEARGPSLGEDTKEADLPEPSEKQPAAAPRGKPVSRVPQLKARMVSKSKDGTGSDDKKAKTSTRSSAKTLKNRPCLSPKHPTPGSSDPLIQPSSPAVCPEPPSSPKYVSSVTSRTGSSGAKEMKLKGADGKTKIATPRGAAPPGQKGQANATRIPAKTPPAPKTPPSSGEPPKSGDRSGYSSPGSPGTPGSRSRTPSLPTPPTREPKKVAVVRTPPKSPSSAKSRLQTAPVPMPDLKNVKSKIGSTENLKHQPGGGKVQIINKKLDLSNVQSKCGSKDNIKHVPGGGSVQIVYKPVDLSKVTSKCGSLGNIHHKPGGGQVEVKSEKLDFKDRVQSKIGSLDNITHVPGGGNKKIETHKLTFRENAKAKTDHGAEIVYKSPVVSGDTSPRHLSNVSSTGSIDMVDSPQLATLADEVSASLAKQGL
Method in brief: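 Human K18 P301L fragment (15 uM unlabeled plus 0.24 uM Alexa 594-labeled) in 100 mM sodium acetate pH 7 with compound, aggregation induced by 20 uM heparin for 6 hr at 37 C. ThT (30 uM) added for 1 hr, then Alexa 594 FP read.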
% is scaled to controls: 0 for no effect and ±100 for the full control effect; potency is read from the fitted curve at half-maximal effect; tags tell the direction and shape of the fitted curve.
Also: nearly all actives have a fitted effect of over 55% in size.

For Cc1ccsc1CN(C(=O)c1oc2ccc(Br)cc2c1C)C1CCS(=O)(=O)C1 (configuration not stated), which Potency is on record?
The Potency was inconclusive: 0.112 µM [inhibitor, full curve, poor fit].

How did the Potency turn out when Cc1snc(SCC(=O)N/N=C(\N)COc2ccc(F)cc2)c1C#N was run?
The Potency was inconclusive: 2.82 µM [inhibitor, partial curve].

CCN1c2ccccc2-c2nc(SCC(=O)NCc3ccc(Cl)cc3)ncc2S1(=O)=O was tested. Which Potency did it give?
The Potency was inconclusive: 12.6 µM [inhibitor, partial curve].

How did the “activity, negative = inhibition” value turn out when CC1=CC2C(=O)c3cccc(O)c3C(=O)C2C(O)=C1 (configuration not stated) was run?
The value was inactive: -9.57%.

With Cc1cc(N2CCN(C)CC2)nc2ccc(NC(=O)Nc3cccc(Cl)c3)cc12 as the molecule, how does the Potency read?
Its Potency is inconclusive: 20 µM [activator, partial curve].

Which Potency does the source give for CC(=O)NCCc1ccc(O)c(O)c1 here?
Its Potency is inconclusive: 14.1 µM [inhibitor, partial curve].

How did the “activity, negative = inhibition” value turn out when CC(C)(CCl)C(=O)Nc1ccc(C(F)(F)F)cc1 was run?
Its value is inactive: 1.54%.

For CCN(CC)C(=O)N1CCN(C)CC1, which Potency is on record?
Its Potency is “inactive and inconclusive: 7.94 µM [inhibitor, single point]”.

With COc1cccc(CNC(=O)c2ccc3c(=O)n4nc(Nc5ccccc5)sc4nc3c2)c1 as the molecule, how does the Potency read?
The Potency was inconclusive: 17.8 µM [inhibitor, partial curve].

For Cc1ccc(/C=N/NC(=O)c2nnn(-c3nonc3N)c2CSc2ccccc2)cc1, which Potency is on record?
The Potency was inconclusive: 7.94 µM [inhibitor, full curve].

With Cc1ccc(-n2nnnc2-c2cnn(-c3ccc(F)cc3)c2C(F)(F)F)cc1 as the molecule, how does the “activity, negative = inhibition” value read?
Its value is inactive: -6.08%.

With CCn1c(N)c(C(N)=O)sc1=S as the molecule, how does the “activity, negative = inhibition” value read?
The value was inactive: -1.63%.

With Cc1cc(C)n2nc(SCC(=O)N/N=C/c3cccc(Br)c3)nc2n1 as the molecule, how does the Potency read?
Its Potency is inconclusive: 14.1 µM [activator, partial curve].

CCN1CCN(C(c2ccc(C)cc2)c2c(O)cc(C)n(Cc3ccco3)c2=O)CC1 (configuration not stated) was tested. Which Potency did it give?
The Potency was inconclusive: 44.7 µM [inhibitor, single point].

With CN(Cc1ccccc1)S(=O)(=O)c1ccc2[nH]c3c(c2c1)CCCCC3 as the molecule, how does the Potency read?
Its Potency is inconclusive: 3.55 µM [activator, single point].

For Cc1ccccc1NC(=O)Cn1cccc1, which Potency is on record?
The Potency was inconclusive: 0.199 µM [inhibitor, full curve, poor fit].

With COc1cc(OC)c(N(C)C(=O)c2cn(C3CCCC3)c(=O)c3c2c2ccccc2n3C)cc1Cl as the molecule, how does the “activity, negative = inhibition” value read?
Its value is inactive: 0.523%.

With Nc1ccc(N=Nc2ccccc2)c(N)n1 as the molecule, how does the Potency read?
Its Potency is inconclusive: 0.0708 µM [activator, full curve, poor fit].

How did the “activity, negative = inhibition” value turn out when O=C(NCc1ccccc1)c1ccc2c(=O)[nH]c3c(C(=O)NCC4CCCO4)sc(=S)n3c2c1 (configuration not stated) was run?
The value was inactive: 11.4%.

CCOC(=O)C1=C(CSc2nc3c(cc2C#N)CN(C)CC3)OC(N)=C(C#N)C1c1ccc(F)cc1 (configuration not stated) was tested. Which Potency did it give?
Its Potency is inconclusive: 39.8 µM [inhibitor, single point].

CCOc1cc(/C=N/O)cc(Br)c1OCc1ccc(Cl)cc1 was tested. Which Potency did it give?
The Potency was inconclusive: 22.4 µM [inhibitor, partial curve].

For CC1=C/C(=N\OS(=O)(=O)c2ccccc2)C(C(C)C)=CC1=O, which Potency is on record?
The Potency was inconclusive: 10 µM [inhibitor, partial curve].

How did the “activity, negative = inhibition” value turn out when O=C(/C=C/c1ccccc1)NCc1ccco1 was run?
The value was inactive: 7.73%.

How did the “activity, negative = inhibition” value turn out when O=C(NCCN1C(=O)S/C(=C\c2ccc(OC(F)F)cc2)C1=O)c1cnccn1 was run?
Its value is inactive: 7.19%.

With CC(=O)c1cccc(Nc2cc(C)nc3nc(Cc4ccccc4)nn23)c1 as the molecule, how does the “activity, negative = inhibition” value read?
The value was inactive: 3.83%.

CCOc1ccc(NS(=O)(=O)c2cc(NC(=O)c3cccc(C)c3)ccc2Cl)cc1 was tested. Which Potency did it give?
The Potency was inconclusive: 28.2 µM [inhibitor, partial curve].

Which Potency does the source give for O=C(NCCc1ccccc1)c1ccc2c(c1)N(Cc1ccccc1)C(=O)c1ccccc1S2(=O)=O here?
Its Potency is inconclusive: 8.91 µM [inhibitor, full curve].

Cc1ccc(-c2cc(-c3ccco3)c(C#N)c(=O)[nH]2)cc1 was tested. Which Potency did it give?
Its Potency is inconclusive: 17.8 µM [inhibitor, single point].

How did the “activity, negative = inhibition” value turn out when COc1cccc(Nc2sc(C(=O)c3ccc(Cl)cc3)c(N)c2C(=O)NCc2ccc(C)cc2)c1 was run?
Its value is inactive: 7.43%.

How did the Potency turn out when O=C(Nc1ccccc1)c1ccc(Br)c(S(=O)(=O)Nc2cccnc2)c1 was run?
The Potency was inconclusive: 3.55 µM [inhibitor, single point].

Which Potency does the source give for COc1ccc(OC)c(NC(=O)C(=O)/C=C(\O)c2cc(OC)ccc2OC)c1 here?
The Potency was inconclusive: 31.6 µM [inhibitor, partial curve, poor fit].

With CC(C)CSc1nc2c(c(=O)[nH]c(=O)n2C)n1CC(O)COc1cccc2ccccc12 (configuration not stated) as the molecule, how does the Potency read?
The Potency was inconclusive: 17.8 µM [inhibitor, single point].

How did the Potency turn out when CSc1nsc(SCC(=O)Nc2c(C)n(C)n(-c3ccccc3)c2=O)n1 was run?
The Potency was inconclusive: 12.6 µM [inhibitor, partial curve].

How did the “activity, negative = inhibition” value turn out when Cc1ccc(N2CCN(/N=C/c3ccccc3)CC2)cc1 was run?
The value was inactive: 9.68%.

Which “activity, negative = inhibition” value does the source give for CC1CCN(S(=O)(=O)c2ccc3c(c2)c(=O)c(C(=O)NC(C)c2ccccc2)cn3C)CC1 (configuration not stated) here?
Its value is inactive: -3.79%.

How did the Potency turn out when NS(=O)(=O)c1ccc(CCNc2ncnc3c2cnn3-c2cccc(Cl)c2)cc1 was run?
Its Potency is inconclusive: 20 µM [inhibitor, single point].

With COc1cc(-c2nc3ccc4ccccc4c3c3c2CCC3)cc(OC)c1O as the molecule, how does the Potency read?
Its Potency is inconclusive: 44.7 µM [activator, single point].

With Fc1ccc2[nH]c(-c3cccs3)cc2c1 as the molecule, how does the Potency read?
Its Potency is inconclusive: 39.8 µM [inhibitor, single point].

With CC(C)Cn1c(=O)c2sccc2n2c(CCCC(=O)N3CCN(c4ccc(F)cc4)CC3)nnc12 as the molecule, how does the “activity, negative = inhibition” value read?
The value was inactive: 7.32%.

How did the Potency turn out when CCc1ccccc1NC(=O)c1nnn(Cc2ccc(Cl)cc2)c1N was run?
The Potency was inconclusive: 17.8 µM [inhibitor, partial curve].

COc1ccc(NC(=O)Nc2cccc([N+](=O)[O-])c2)cc1Cl was tested. Which Potency did it give?
Its Potency is inconclusive: 39.8 µM [inhibitor, single point].

For C[C@@H]1CC[C@@]2(OC1)OC1CC3C4CC=C5CC(O)CCC5(C)C4CCC3(C)C1[C@@H]2C (some centres not stated), which Potency is on record?
The Potency was inconclusive: 0.562 µM [inhibitor, single point].

CCOc1ccccc1Nc1nc(-c2sc(NC(=O)c3cccc(Cl)c3)nc2C)cs1 was tested. Which Potency did it give?
The Potency was inconclusive: 0.0794 µM [activator, full curve, poor fit].

For COCCNC(=O)CSc1nc(-c2ccccc2)[nH]c1-c1ccc(OC)cc1, which Potency is on record?
Its Potency is inconclusive: 10 µM [activator, partial curve, poor fit].

For CC(=O)C1=C(C)OC(N)=C(C#N)C1c1cc([N+](=O)[O-])ccc1Cl (configuration not stated), which Potency is on record?
Its Potency is inconclusive: 44.7 µM [inhibitor, single point].

With COc1ccc(-c2nc3ccccc3o2)cc1NC(=O)c1ccc(Br)o1 as the molecule, how does the Potency read?
The Potency was inconclusive: 2.82 µM [inhibitor, single point].

For CC(=O)Nc1cc(N2C(=O)CCC2=O)ccc1Cl, which “activity, negative = inhibition” value is on record?
Its value is inactive: 6.63%.

With Cc1cc(/C=N/NC(N)=S)c(C)n1-c1ccc(Br)cc1 as the molecule, how does the “activity, negative = inhibition” value read?
The value was inactive: -3.17%.

How did the Potency turn out when CC(C)COc1ccc(-c2nn(-c3ccccc3)cc2C(=O)Nc2nccs2)cc1 was run?
Its Potency is active: 14.1 µM.

O=C(c1ccc(Cl)c(S(=O)(=O)N2CCCC2)c1)N1CCN(c2ccccc2)CC1 was tested. Which “activity, negative = inhibition” value did it give?
The value was inactive: 4.31%.

With COc1ccccc1Cc1nc2ccccc2nc1SCC(=O)Nc1cc(Cl)ccc1OC as the molecule, how does the Potency read?
The Potency was inconclusive: 44.7 µM [inhibitor, single point].

For Cc1[nH][nH]c(=O)c1C(c1c(C)[nH][nH]c1=O)c1cn(C)c2ccccc12, which “activity, negative = inhibition” value is on record?
The value was inactive: 4.02%.

How did the Potency turn out when CCC1CCCCN1S(=O)(=O)c1cc(C(=O)Nc2ccc(C)c(F)c2)ccc1F (configuration not stated) was run?
The Potency was inconclusive: 35.5 µM [inhibitor, single point].

With COCCNC(=O)COC(=O)c1nsc(Cl)c1Cl as the molecule, how does the “activity, negative = inhibition” value read?
Its value is inactive: 3.48%.

With Cc1ccc2[nH]c(=O)c(CN(C(=O)c3cccc(Cl)c3)C(C)(C)C)cc2c1 as the molecule, how does the “activity, negative = inhibition” value read?
The value was inactive: -2.02%.

How did the “activity, negative = inhibition” value turn out when CCOC(=O)C1=C(c2ccccc2)O/C(=C(\C(=O)OC)C(F)(F)F)S1 was run?
The value was inactive: -2.56%.

Which Potency does the source give for Cc1ccc(-c2nnc(NCc3nc4ccccc4[nH]3)c3ccccc23)cc1S(=O)(=O)N1CCCCC1 here?
Its Potency is inconclusive: 35.5 µM [inhibitor, partial curve].

How did the Potency turn out when CSc1ccc(Cn2nnc(C(=O)Nc3ccc(C)cc3Cl)c2N)cc1 was run?
The Potency was inconclusive: 10 µM [inhibitor, partial curve].

Cc1cc(/C([O-])=C(/C(=S)Nc2ccc(F)cc2)[n+]2ccccc2)c(C)n1-c1ccc(F)cc1 was tested. Which “activity, negative = inhibition” value did it give?
The value was inactive: -10.7%.

Which Potency does the source give for Cn1cnc2c(NC3CCCC3)ncnc21 here?
The Potency was “inactive”.

How did the “activity, negative = inhibition” value turn out when Cc1ccc(OCCCC(=O)Nc2ccc3c(c2)OCO3)cc1 was run?
The value was inactive: 9.53%.

Which Potency does the source give for O=C(Nc1nc(-c2ccccc2)ns1)c1cccs1 here?
Its Potency is inconclusive: 22.4 µM [inhibitor, single point].

Which Potency does the source give for O=[N+]([O-])c1ccc(N/N=C/c2ccccc2)cc1 here?
The Potency was inconclusive: 1.41 µM [activator, full curve, poor fit].

For Cc1ccc(S(=O)(=O)O/N=C2/CCCc3occc32)cc1, which “activity, negative = inhibition” value is on record?
Its value is inactive: -4.92%.

COc1ccc(OC)c(CNC(=O)c2cnc3c(C)cccn3c2=O)c1 was tested. Which “activity, negative = inhibition” value did it give?
Its value is inactive: -0.579%.

Which Potency does the source give for Fc1ccc(-n2nnc(-c3cccnc3Cl)n2)cc1 here?
Its Potency is inconclusive: 0.112 µM [activator, single point].

Which “activity, negative = inhibition” value does the source give for Cc1ccccc1OCCSc1nnc(C)n1-c1ccccc1 here?
Its value is inactive: -3.82%.

O=c1c(=O)n(Cc2ccc(Cl)cc2)ccn1Cc1ccc(F)cc1 was tested. Which Potency did it give?
Its Potency is inconclusive: 1.78 µM [inhibitor, partial curve].

CCc1ccc(OCC(=O)NC(=S)Nc2ccc(S(=O)(=O)NC3CCCCC3)cc2)cc1 was tested. Which Potency did it give?
Its Potency is inconclusive: 25.1 µM [inhibitor, single point].

Which “activity, negative = inhibition” value does the source give for Cc1ccc(NC2=C/C(=N/S(=O)(=O)c3cccs3)c3ccccc3C2=O)cc1 here?
Its value is inactive: -0.762%.

Cc1cccc(NC(=O)c2onc3c2CCCC3)n1 was tested. Which “activity, negative = inhibition” value did it give?
The value was inactive: -0.914%.

How did the Potency turn out when Cn1c(=O)n(C)c2cc(/C=C(/C#N)C(=O)NCc3ccco3)ccc21 was run?
The Potency was inconclusive: 3.16 µM [inhibitor, partial curve, poor fit].
